# The full ranking holds about 110,000 compounds; the median of “z-score” is about -0.1, and the highest 2% start at about 2. The list shows a part of the results. Activity calls are given as the source filed them.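 Rule for the calls: active = z-score in the third read window above 3 or below -3; inactive = the rest.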
# Molecular target: Metabotropic glutamate receptor 8 (Rattus norvegicus) (UniProt P70579)
# Assay: rat mGluR8 modulators via GIRK flux, primary screen, cell-based, thallium flux, HTS (AID 488969)
# Settings: HEK293 rat mGluR8, GIRK (G protein-gated inwardly rectifying potassium channel) thallium flux, FluoZin2; at 10 µM; stronger effect = higher value; submaximal glutamate (EC20) added with thallium
# Sequence of UniProt P70579 (P70579 whole entry, looked up): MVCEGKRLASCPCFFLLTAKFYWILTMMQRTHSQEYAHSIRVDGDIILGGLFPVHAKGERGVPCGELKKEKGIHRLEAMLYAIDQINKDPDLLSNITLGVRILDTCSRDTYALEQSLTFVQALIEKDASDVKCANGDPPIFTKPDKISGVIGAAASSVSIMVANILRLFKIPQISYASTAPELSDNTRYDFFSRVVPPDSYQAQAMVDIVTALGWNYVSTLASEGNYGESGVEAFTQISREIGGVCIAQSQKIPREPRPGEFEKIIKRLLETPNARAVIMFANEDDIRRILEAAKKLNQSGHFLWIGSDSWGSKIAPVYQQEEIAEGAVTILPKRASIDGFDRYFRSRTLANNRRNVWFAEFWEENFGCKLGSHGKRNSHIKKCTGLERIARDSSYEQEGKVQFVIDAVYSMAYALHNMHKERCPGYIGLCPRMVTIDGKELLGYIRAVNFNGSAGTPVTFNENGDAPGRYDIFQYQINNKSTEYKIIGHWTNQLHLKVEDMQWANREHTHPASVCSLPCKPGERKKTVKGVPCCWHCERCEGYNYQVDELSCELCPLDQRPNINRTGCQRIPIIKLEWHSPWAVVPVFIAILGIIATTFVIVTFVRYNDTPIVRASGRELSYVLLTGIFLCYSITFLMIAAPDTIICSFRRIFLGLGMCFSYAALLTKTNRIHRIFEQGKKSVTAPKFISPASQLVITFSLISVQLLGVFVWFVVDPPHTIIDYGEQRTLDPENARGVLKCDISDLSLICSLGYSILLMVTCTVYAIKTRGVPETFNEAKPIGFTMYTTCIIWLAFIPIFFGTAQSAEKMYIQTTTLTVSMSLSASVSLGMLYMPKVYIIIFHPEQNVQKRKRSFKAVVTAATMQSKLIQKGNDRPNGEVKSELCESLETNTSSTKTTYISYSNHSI
row,SMILES,z-score
1,CCC(=O)Nc1ccc(S(=O)(=O)N2CCc3ccccc3C2)cc1,-0.0809
2,O=C(c1cc(Cl)ccc1[N+](=O)[O-])n1cnc2ccccc21,-0.721
3,O=C(NCc1ccc2c(c1)OCO2)C1CCCN1C(=O)Nc1cccc(F)c1 (stereo not drawn),0.725
4,Cc1ccccc1OCc1nc2ccccc2c(=O)n1N,-0.0405
5,C=CCn1c(CCC(O)CCCCC)n[nH]c1=S (stereo not drawn),0.0214
6,CCc1cccc(CC)c1NC(=O)COC(=O)Cc1ccsc1,-0.198
7,OCC(O)CSc1nc(-c2ccccc2)nc2c1CCC2 (stereo not drawn),-0.347
8,Cc1ccc(C)c(N2CCN(CC3CC=CCC3)CC2)c1 (stereo not drawn),-0.0803
9,COc1ccccc1-c1cc2ccccc2[nH]1,0.0197
10,COc1ccccc1NC(=O)C1=C(C)Nc2nc(CCCO)nn2C1c1cccnc1 (stereo not drawn),0.955
11,CC(C)(C)n1nnnc1CN1C2CCC1CC(NC(=O)Nc1ccccc1)C2 (stereo not drawn),0.248
12,Cc1nc2ccccc2c2nc(NC(=O)Cc3ccccc3)nn12,-0.0341
13,O=C1N=C(N2CCC(Cc3ccccc3)CC2)S/C1=C/c1cn[nH]c1-c1ccccc1,-0.444
14,O=C(Nc1ccc(N2CCOCC2)cc1)c1ccc(S(=O)(=O)N2CCCCC2)cc1,0.987
15,CC(=O)c1c(C)[nH]c(C(=O)OCC(=O)Nc2cc(C(F)(F)F)ccc2N2CCOCC2)c1C,-0.308
16,COc1ccc(OC)c(NS(=O)(=O)Cc2ccccc2)c1,-0.262
17,C=CCn1c(SCC)nc2sc3c(c2c1=O)CCc1ccccc1-3,0.571
18,Cc1cc(OCc2nc(-c3ccc(NC(=O)c4cccnc4)cc3)no2)ccc1Cl,-0.0767
19,COc1ccc(S(=O)(=O)Nc2ccccc2OC)cc1C,-0.348
20,CN1CCN(c2nc(-c3cccs3)cc(C(F)(F)F)n2)CC1,0.428
21,CCc1cccc(C)c1NC(=O)c1cc(C)oc1C,-0.302
22,Cn1cnnc1SCC(=O)Nc1ccc2nc(SCc3cccc4ccccc34)sc2c1,0.456
23,O=c1[nH]c2ccccc2n2c(-c3ccccc3)nnc12,-1.11
24,Cc1cc(Br)ccc1NC(=O)CN1C(=O)C2C3CC(c4ccccc4)C(C3)C2C1=O (stereo not drawn),-0.06
25,CN(c1ccccc1C(=O)Nc1ccccc1C(=O)NCc1ccco1)S(C)(=O)=O,0.87

row,SMILES,z-score
1,Clc1ccccc1CN(Cc1ccccc1)C(c1cccs1)c1nnnn1C1CCCC1 (stereo not drawn),-0.135
2,CCn1c(SCC(=O)NCCOC)nc2sc(C)c(C)c2c1=O,0.264
3,CC(=O)c1cc(F)c(N2CCN(C(=O)C(C)(C)C)CC2)cc1C,-0.123
4,CCn1c(COc2ccccc2C(N)=O)nc2ccccc21,-0.397
5,Nc1nc(SCC(=O)N2CCc3ccccc32)[nH]c(=O)c1-c1ccccc1,0.47
6,Cc1noc(C)c1S(=O)(=O)N(CC(=O)Nc1ccc2c(c1)OCO2)c1ccc(C(C)C)cc1,-0.439
7,Cc1ccc(C2CC(c3cccs3)n3nc(N)nc3N2)cc1 (stereo not drawn),0.263
8,COc1cc(C)c(CNC2CCCCC2)cc1C,0.606
9,CCOC(=O)NN1C(=O)c2ccccc2NC1c1ccccc1O (stereo not drawn),-0.0265
10,O=C(C1CCN(S(=O)(=O)c2ccc(-n3cnnn3)cc2)CC1)N1CCN(c2ccccc2)CC1,0.119
11,COC(=O)CCC/C=C1/SCC(NC(=O)c2ccccc2)C1O (stereo not drawn),0.00358
12,COC(=O)N/N=C/c1ccc(-c2cc(Cl)ccc2Cl)o1,0.653
13,COC(=O)c1ccccc1NC(=O)Cn1ccnc1,0.000174
14,COc1cccc(N2C(=O)CC(N3CCC(C(N)=O)(N4CCCCC4)CC3)C2=O)c1 (stereo not drawn),0.0589
15,Cc1nc(Oc2ccccc2)c2oc3ccccc3c2n1,-0.225
16,Cc1ccc(NC(=O)NC2CCCCC2)c(C)c1,-0.228
17,CCCCn1c(-c2ccc(Cl)cc2)nc2c(=O)n(C)c(=O)[nH]c21,active: -3.28
18,COc1ccc(S(=O)(=O)CCC(=O)NCCc2cccc(C)c2)cc1,0.00176
19,Cn1c(Cc2csc(N)n2)nnc1SCC(=O)NCc1ccccc1,0.898
20,C/C(=N/NC(=O)Cc1ccccc1)c1ccc(C)s1,0.0405
21,O=C1C=C(Nc2ccc(Cl)cc2)CC(c2ccccc2)C1 (stereo not drawn),-0.16
22,CC1(C)CC(=O)C(C=NCC(N)=O)=C(O)C1,-0.178
23,C=C1N(c2ccccc2)C(=O)OC1(C)C,-0.0556
24,O=C(COC(=O)c1ccccc1C(=O)c1ccccc1)NCCc1ccccc1,-0.46
25,CCSC1=C(C#N)C2(CCCC2)C(C#N)=C(N)N1,-0.525

row,SMILES,z-score
1,COC(=O)Nc1c(C(=O)OC)cc(OC)c(OC)c1OC,-0.152
2,Cc1cc(C=C2C(=O)c3ccccc3C2=O)c(C)n1-c1ccc(Cl)cc1,0.35
3,CCOC(=O)C1CCN(C(=O)c2ccccc2Oc2ccccc2)CC1,-0.386
4,CN(C)CCCNc1oc(-c2ccc(Cl)cc2)nc1C#N,1.35
5,Cn1c(=O)c(=O)n(C)c2cc(S(=O)(=O)N3CCN(C4CCCCC4)CC3)ccc21,-0.443
6,N/C(=N\OC(=O)c1ccc(Cl)cc1)c1cccnc1,0.654
7,CSc1ncccc1C(=O)OCc1ccccc1,-0.164
8,CCC(=O)Nc1cccc(NC(=O)COc2ccc(OC)cc2)c1,0.781
9,CC(=O)OCc1nc2ccccc2s1,-0.172
10,CCCC(=O)NC(=S)Nc1cccc(C(C)=O)c1,-0.153
11,Cn1c(=O)c([N+](=O)[O-])c(NCc2ccccc2)c2ccccc21,-0.608
12,CNS(=O)(=O)c1ccc(NC(=O)c2nc3nc(C)cc(C(F)F)n3n2)cc1,-0.548
13,CC(C)c1ccc(NC(=O)C2C3C=CC4(CN(CCCN5CCOCC5)C(=O)C24)O3)cc1 (stereo not drawn),-0.269
14,CCOc1ccc(-c2nc(-c3ccncc3)no2)cc1OCC,2.12
15,Cc1nn(C)cc1C1Nc2ccccc2C(=O)N1O (stereo not drawn),-0.121
16,O=C(CCCn1cnc([N+](=O)[O-])n1)Nc1ccc(Cl)c(Cl)c1,-0.0863
17,O=C1CC(Cc2ccc(Cl)cc2)C(=O)N1c1ccncc1 (stereo not drawn),0.037
18,Cc1cc(C(=O)CSc2nnc(-c3ccncc3)n2-c2ccccc2)c(C)n1C,active: 4.58
19,CCOC(=O)c1ccc(-n2c(N)c(C(=O)NCC3CCCO3)sc2=S)cc1 (stereo not drawn),0.547
20,O=C(C/C(=N\NC(=O)c1ccccc1Br)C(F)(F)F)c1cccs1,0.65
21,NC(=O)CCC(NS(=O)(=O)c1ccc(Cl)cc1)C(=O)NCc1ccccc1 (stereo not drawn),-0.229
22,CC(C)(C)C1CCC(=NNC(=O)CN(c2ccccc2)S(C)(=O)=O)CC1 (stereo not drawn),-0.0722
23,CCOc1ccccc1Oc1c(C)oc2c(CN3CCN(C)CC3)c(O)ccc2c1=O,0.544

# Reference: PubChem BioAssay AID488969 (Vanderbilt High Throughput Screening Facility, 2010)
